Experimental data reported in PubChem BioAssay AID2073 (Sanford-Burnham Center for Chemical Genomics, 2009).
This is one part of the list. Shown are side measurements of this screen, not its main read-out; they come without a call.

Target: Voltage-dependent N-type calcium channel subunit alpha-1B (Homo sapiens) (UniProt Q00975)
Experiment: inhibitors of Mint1-CaV2.2 protein interaction, biochemical, HTRF (AID 2073)
Conditions: measured here: average of repeat tests, at 20 µM, stronger effect = higher value

Chain of UniProt Q00975 (Q00975 whole entry, looked up): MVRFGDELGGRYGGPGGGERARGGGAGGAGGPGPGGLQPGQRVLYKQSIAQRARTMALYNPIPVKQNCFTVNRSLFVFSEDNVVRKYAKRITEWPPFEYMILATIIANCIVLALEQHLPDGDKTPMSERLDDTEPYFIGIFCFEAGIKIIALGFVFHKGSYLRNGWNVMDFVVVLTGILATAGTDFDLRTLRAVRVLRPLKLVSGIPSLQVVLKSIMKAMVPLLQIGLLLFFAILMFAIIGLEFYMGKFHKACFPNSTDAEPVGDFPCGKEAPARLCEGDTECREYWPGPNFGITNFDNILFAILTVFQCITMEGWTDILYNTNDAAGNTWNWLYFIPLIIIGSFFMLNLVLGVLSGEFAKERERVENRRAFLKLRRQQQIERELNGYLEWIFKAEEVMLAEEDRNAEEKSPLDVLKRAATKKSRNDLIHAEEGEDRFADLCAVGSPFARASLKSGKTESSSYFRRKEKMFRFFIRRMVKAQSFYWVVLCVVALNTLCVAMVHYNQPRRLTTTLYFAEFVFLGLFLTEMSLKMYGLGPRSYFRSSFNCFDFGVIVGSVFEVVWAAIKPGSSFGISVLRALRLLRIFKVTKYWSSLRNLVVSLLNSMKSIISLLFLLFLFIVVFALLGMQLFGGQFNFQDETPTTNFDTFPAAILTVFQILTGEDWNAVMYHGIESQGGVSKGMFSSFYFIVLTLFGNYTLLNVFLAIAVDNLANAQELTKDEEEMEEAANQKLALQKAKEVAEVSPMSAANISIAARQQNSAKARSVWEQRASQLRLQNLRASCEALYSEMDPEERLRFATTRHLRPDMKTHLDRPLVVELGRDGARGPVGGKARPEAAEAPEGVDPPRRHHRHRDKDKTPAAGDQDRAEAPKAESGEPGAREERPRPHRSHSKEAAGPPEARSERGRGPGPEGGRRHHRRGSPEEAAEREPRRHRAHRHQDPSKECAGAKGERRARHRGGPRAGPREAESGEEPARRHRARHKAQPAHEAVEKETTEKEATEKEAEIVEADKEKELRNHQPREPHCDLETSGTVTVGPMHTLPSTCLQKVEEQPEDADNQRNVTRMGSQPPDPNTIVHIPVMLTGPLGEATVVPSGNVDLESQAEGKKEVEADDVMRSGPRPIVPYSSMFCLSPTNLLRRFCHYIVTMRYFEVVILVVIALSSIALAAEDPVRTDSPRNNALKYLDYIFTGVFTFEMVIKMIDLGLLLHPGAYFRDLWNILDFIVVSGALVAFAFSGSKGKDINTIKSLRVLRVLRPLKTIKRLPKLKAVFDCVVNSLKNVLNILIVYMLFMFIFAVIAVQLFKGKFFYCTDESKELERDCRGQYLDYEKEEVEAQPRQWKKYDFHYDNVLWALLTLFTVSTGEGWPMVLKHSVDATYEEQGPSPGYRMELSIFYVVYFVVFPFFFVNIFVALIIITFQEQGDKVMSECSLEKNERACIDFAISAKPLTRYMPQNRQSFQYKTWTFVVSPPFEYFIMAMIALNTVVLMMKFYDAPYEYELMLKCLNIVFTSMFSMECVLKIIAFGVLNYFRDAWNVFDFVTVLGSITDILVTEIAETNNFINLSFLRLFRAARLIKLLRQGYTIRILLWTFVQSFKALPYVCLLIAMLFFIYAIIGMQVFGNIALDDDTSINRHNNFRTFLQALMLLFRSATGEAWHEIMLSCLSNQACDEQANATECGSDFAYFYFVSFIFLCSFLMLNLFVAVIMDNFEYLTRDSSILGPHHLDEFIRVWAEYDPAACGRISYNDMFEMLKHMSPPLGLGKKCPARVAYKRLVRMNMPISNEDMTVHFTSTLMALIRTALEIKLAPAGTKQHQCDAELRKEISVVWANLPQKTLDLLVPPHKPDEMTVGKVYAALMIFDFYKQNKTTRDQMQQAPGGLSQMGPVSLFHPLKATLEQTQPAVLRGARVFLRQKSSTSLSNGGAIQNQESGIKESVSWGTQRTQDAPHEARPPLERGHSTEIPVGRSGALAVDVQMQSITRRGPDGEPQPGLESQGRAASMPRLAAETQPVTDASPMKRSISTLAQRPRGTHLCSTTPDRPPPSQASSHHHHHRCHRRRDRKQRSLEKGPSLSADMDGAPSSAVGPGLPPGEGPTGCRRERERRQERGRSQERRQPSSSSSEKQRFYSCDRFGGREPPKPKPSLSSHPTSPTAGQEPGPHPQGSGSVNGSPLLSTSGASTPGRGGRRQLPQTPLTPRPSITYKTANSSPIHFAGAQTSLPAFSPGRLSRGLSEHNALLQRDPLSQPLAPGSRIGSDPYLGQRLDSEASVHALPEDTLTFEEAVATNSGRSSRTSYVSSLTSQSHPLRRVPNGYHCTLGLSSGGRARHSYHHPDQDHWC

| Structure (SMILES) | inhibition [%] |
| --- | --- |
| CC(=O)NC1=NC(=O)/C(=C/c2cn(C(C)=O)nc2-c2ccccc2)S1 | 42.1 |
| Cc1ccc(-c2ccc(/C=C3\C(=O)ON=C3c3ccccc3)o2)c([N+](=O)[O-])c1 | 59.8 |
| COc1ccc(/C=C/C(=O)NC(=S)Nc2ccc(S(=O)(=O)N=C(N)N)cc2)cc1OC | 75.8 |
| Nc1c(C(=O)Nc2ccccc2)sc2nc(-c3ccco3)ccc12 | 67.3 |
| O=C(COc1ccc(/C=N/NC(=O)c2ccc(O)cc2)cc1)Nc1ccc([N+](=O)[O-])cc1 | 75.6 |
| CCOc1cc(/C=N/NC(=O)c2ccc(-c3csc(Nc4ccc(C)cc4)n3)cc2)ccc1OCC(=O)O | 88 |
| N#CC1=C(N)NC(=S)C(C(N)=O)C1c1ccccc1F (stereo not given) | 81.4 |
| COc1ccc(C2CC(=O)N3CN(c4ccc(C)c(Cl)c4)CSC3=C2C#N)cc1OC (stereo not given) | 47.8 |
| O=C(Nc1ccc(Cl)c(Cl)c1)Nc1nnc(-c2ccncc2)s1 | 42.7 |
| CC(/C=C/c1ccco1)=N\NC(=O)c1cccnc1 | 60.6 |
| Cn1c2ccccc2c2cc(/C=N/NC(=O)c3cc(O)ccc3O)ccc21 | 54.2 |
| CCOC(=O)c1nnn2c1nc(Nc1cccc(C(F)(F)F)c1)c1ccccc12 | 37.8 |
| COc1cc(OC)c(-c2c3cc(O)c(=O)cc-3oc3cc(O)c(O)cc23)cc1OC | 46.3 |
| O=C1C=CC(=O)N1c1ccc(N2CCCCC2)cc1 | 61.4 |
| Nc1c(C(=O)Nc2ccc(Br)cc2)sc2nc(-c3ccco3)ccc12 | 66 |
| CC1=C(C#N)C(=O)N(C2CCS(=O)(=O)C2)C(=O)/C1=C\c1ccco1 (stereo not given) | 98 |
| CCC1=NN2C(=N)/C(=C\c3ccc(OCc4cc(=O)n5nc(CC)sc5n4)c(OC)c3)C(=O)N=C2S1 | 64.8 |
| NC(=O)c1ccc2c(=O)c(O)c(-c3cc(Cl)c(N)c(Cl)c3)[nH]c2c1 | 59 |
| CN1CCN(NS(=O)(=O)c2cccs2)CC1 | 43.5 |
| Nc1cccc(-c2nc3cc(S(=O)(=O)c4ccc5oc(-c6cccc(N)c6)nc5c4)ccc3o2)c1 | 47.6 |

| Structure (SMILES) | inhibition [%] |
| --- | --- |
| COC(=O)c1ccc(NC(=O)c2ccc(NC(=O)c3ccco3)cc2)cc1 | 47.7 |
| Cc1cc2nc(/C=C/c3nc4cc(C)c(C)cc4[nH]3)[nH]c2cc1C | 45.3 |
| CCOC(=O)c1nn(-c2ccc(C)c(C)c2)c(=O)c2c(N)scc12 | 56.7 |
| CCCc1ccc(/C=C2\C(=O)c3ccccc3C(O)=C2C(=O)OCC)cc1 | 55.4 |
| O=C(NCCCO)Nc1ccc2nc(-c3ccco3)c(-c3ccco3)nc2c1 | 59.8 |
| O=C(NC1CCCC1)c1ccc2nc(-c3ccco3)c(-c3ccco3)nc2c1 | 35.5 |
| O=C(CSc1n[nH]c(=O)[nH]c1=O)Nc1ccc2c(c1)C(=O)c1ccccc1C2=O | 53.5 |
| O=c1cc(CO)oc(C(Nc2cccc(C(F)(F)F)c2)c2ccccn2)c1O (stereo not given) | 65.7 |
| CC1=C(C)CS(=O)N(S(=O)(=O)c2ccccc2)C1 (stereo not given) | 60.4 |
| Cc1cc(=O)oc2cc(OCC(=O)N/N=C/c3cc([N+](=O)[O-])ccc3O)ccc12 | 50.9 |
| Cc1ccc(N(CC(O)COCc2ccco2)S(=O)(=O)c2ccc(C)cc2)cc1 (stereo not given) | 48.9 |
| C=C(C)C(=O)Nc1cccc(C2=NOC3(C2)C[C@@H](C(N)=O)N(C(=O)c2ccc(OC)cc2)C3)c1 (stereo not given in full) | 78.6 |
| COc1ccc(N=C2S/C(=C\c3ccc(OC(C)C(=O)O)c(OC)c3)C(=O)N2CCc2c[nH]c3ccccc23)cc1 (stereo not given) | 80.7 |
| Cc1cc(C)c2c(=O)n(CC(=O)NC3CCCC3)sc2n1 | 91 |
| COc1ccc(C(=O)Nc2nnc(CC(=O)N/N=C/c3ccc(O)cc3O)s2)cc1 | 51 |
| CCOc1ccc(NC(=O)c2ccc(NC(=O)c3ccc(CN4CCOCC4)cc3)cc2)cc1 | 65.9 |
| Cc1cc(O)c(C=O)c2c1C(=O)Oc1c(CO)c(O)c3c(c1O2)C(O)OC3=O (stereo not given) | 85.4 |
| O=C(O)Cc1sc(Nc2ccc(Cl)cc2)nc1-c1cccs1 | 38.5 |
| CCc1cc2c(=O)c(Oc3ccccc3F)c(C)oc2c(CN(C)C)c1O | 52.1 |
| COc1ccc(N2CSC3=C(C#N)C(c4cccc(OC)c4OC)CC(=O)N3C2)cc1 (stereo not given) | 40.4 |

| Structure (SMILES) | inhibition [%] |
| --- | --- |
| O=C(N/N=C/c1cccc(F)c1)c1cc(-c2ccco2)nc2ccccc12 | 68.4 |
| COc1cc2cc3c(N)c(C(=O)Nc4sc(C)c(C)c4C#N)sc3nc2cc1OC | 58.2 |
| CCC(=O)Nc1ccc(Nc2nc(Cl)nc(Nc3ccc(NC(=O)CC)cc3)n2)cc1 | 60.7 |
| O=C(N/N=C/c1ccc(F)cc1)c1cc(-c2ccco2)nc2ccccc12 | 63.1 |
| CNC(=O)C1C(=S)NC(N)=C(C#N)C1c1ccccc1 (stereo not given) | 82.3 |
| CCOc1cc(/C=C\[N+](=O)[O-])ccc1OCC(=O)N1CCOCC1 | 67.1 |
| N=C1C(c2nc(-c3ccc(Cl)cc3)cs2)=C(O)CN1NC(=O)c1ccc(O)cc1 | 47.2 |
| Cc1cccc(N2CSC3=C(C#N)C(c4ccc(C)o4)CC(=O)N3C2)c1 (stereo not given) | 62.4 |
| CCOC(=O)c1cc(-c2ccccc2)sc1NC(=O)COC(=O)c1cccc(S(N)(=O)=O)c1 | 57.9 |
| C/C(=N\Nc1ccc(S(N)(=O)=O)cc1[N+](=O)[O-])c1cccs1 | 80.1 |
| Cc1cccc(N2CCN(C(=O)Cn3sc4nc(C)cc(C)c4c3=O)CC2C)c1 (stereo not given) | 85.3 |
| CSc1nc(NCCOCCO)c2sc3nc(-c4ccco4)c4c(c3c2n1)CCC4 | 51.7 |
| O=C(COC(=O)CNC(=O)c1ccc(-c2ccccc2)cc1)NCc1ccco1 | 65.6 |
| COc1ccc(-c2nc3c(c(SCC(=O)Nc4cccc(O)c4)n2)Cc2c(CO)cnc(C)c2O3)cc1 | 70.6 |
| O=C(O)c1cc(N2N=C(C(F)(F)F)/C(=C/C=C/c3ccco3)C2=O)ccc1Cl | 84.3 |
| Oc1ccc(/C=N/N=C(c2ccccc2)c2ccccc2)c(O)c1O | 45.3 |
| N=C1/C(=C\c2ccc(-c3ccc(C(=O)O)cc3)o2)C(=O)N=C2SC=C(c3ccccc3)N12 | 59.5 |
| NS(=O)(=O)c1ccc(N/N=C/c2ccc3c(c2)OCO3)c([N+](=O)[O-])c1 | 75.8 |
| COc1cc(/C=C2\SC(=S)N(c3cccnc3)C2=O)ccc1O | 67.1 |
| C/C=C/C=C\C(=O)Nc1cccc(C2=NOC3(C2)C[C@H](C(N)=O)N(C(=O)/C=C/C)C3)c1 (stereo not given in full) | 69.4 |
